In the supplement of paper PMC11417369:
± gives the standard deviation of the averaged measurements. Some of the results follow.

These sequences were tested on PfAP2-I AP2 domain 3 (GST-tagged) (assay: gcPBM binding intensity (ln(normalized median fluorescence intensity)); higher = stronger DNA binding).
Method in brief: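 Using an Agilent 4 × 180k array, primer-extended double-stranded 36-bp intergenic genomic probes and negative controls were exposed for 1 h to GST-fused P. falciparum DNA-binding domains expressed in E. coli. Binding was carried out in 1× PBS with 1% milk, 0.2 mg/ml BSA, 0.5% salmon testes DNA and 0.03% Triton X-100, and protein was detected with Alexa488 anti-GST antibody and a 488 nm scan. Binding intensity is the highest Masliner-normalised natural-log median intensity across replicate spots of either probe orientation.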

Row | Sequence | gcPBM binding intensity (ln)
1 | AATAAAATGAGATGTTGTACAGTTTTGATATATGCA [XGTACX_site3052] | 7.96 ± 0.19
2 | GTATGTATGTATGTATGTACTTATGTAGTCTTAGTT [XGTACX_site1710] | 8.91 ± 0.27
3 | AGTGTAGGTATATAAACACACATACAGATATATAAT [CACACA_site4900] | 7.67 ± 0.93
4 | TAAAAAATAAAATGGACACACACGTTCAAATTTAGA [CACACA_site2083] | 7.57 ± 0.59
5 | TTAATAAACCTTAGATGTACAGTTATATATAAAATA [XGTACX_site6681] | 7.64 ± 0.36
6 | ATATATATATATATATGTACACATATATGTGTTTGT [XGTACX_site62] | 9.3 ± 0.4
7 | TGAACTCACGAGCACACACACACATATATATATATA [CACACA_site8248] | 9.4 ± 0.23
8 | ATATATATTTTTTAATGTACTTATATTTTTATAATA [XGTACX_site2103] | 8.11 ± 0.39
9 | ATACAATAAAGGTGTACACATATATGATGCAAGATG [CACACA_site5897] | 8.64 ± 0.45
10 | GGTCATATTTTTTGCACACAAAAAAAAATATAAAAT [CACACA_site3381] | 9.42 ± 0.16
11 | AGCAATTGTGTTTTCACACATAAATATATTCCTCAC [CACACA_site5021] | 7.78 ± 0.54
12 | AATTAAACTCACACCACACACAAAAAAAAAAAAAAA [CACACA_site693] | 8.21 ± 0.41
13 | AATATTACAAAATATTGTCCGTACAAATTTTTAATA [XGTACX_site8129] | 7.64 ± 0.52
14 | AAAAAAAAAAAAAAGACACACATATATATATATATA [CACACA_site633] | 9.31 ± 0.19
15 | GATGATAAAATATGTACACACAGTTTATACATTTTG [CACACA_site4055] | 7.71 ± 0.43
16 | TTAACATATTATAAGTGTACATATTTATAAACAAGA [XGTACX_site8806] | 8.1 ± 0.29
17 | ATTTTGAAAAATAAAAGTACATATAATATATCTACA [XGTACX_site7185] | 7.6 ± 0.26
18 | TCTGTTAATATTTATACACACATATTTATTTATATA [CACACA_site6658] | 7.78 ± 0.57
19 | ATATACATATATATGGGTACATATATTAATATATAT [XGTACX_site8358] | 7.84 ± 0.35
20 | TTTAGATATATGGTAGTGCATAATAAAAATATAGCC [GTGCAC_site9449] | 11.1 ± 0.67
21 | CACTCCATATTATACACACACACAAATGAAAAAAAT [CACACA_site3019] | 8.14 ± 0.38
22 | ATATCGGGTGCATTAACACACATTTATTTGAATAAA [CACACA_site2350] | 11.7 ± 0.79
23 | TAAAATATAATAAAATGTACACGCATGCAATAGAAT [XGTACX_site7434] | 8.54 ± 0.64

Row | Sequence | gcPBM binding intensity (ln)
24 | GCTTCTTAGTATACTTTATAAAATATATATTAAATA [XGTACX_negctrl_site57] | 8.09 ± 0.48
25 | ATATATCATAATAGAGGTACACATATTATATATATA [XGTACX_site782] | 8.55 ± 0.33
26 | TTTATAAATATATATACACACACATATATATTATAT [CACACA_site8099] | 7.66 ± 0.45
27 | ATATTAAATATAATTTGTACGCATTTTTTTTTTTTT [XGTACX_site1910] | 8 ± 0.057
28 | TTCCCTTTTTTTATTTGTACTTATCTTTTAAATAAT [XGTACX_site2497] | 8.21 ± 0.49
29 | AATTATAATTAATAGAGTACTGAATATATATATATA [XGTACX_site8683] | 9.23 ± 0.2
30 | AGCATTTTTCATTTTGCACACATGTTTTATGTGTAT [CACACA_site3454] | 9.4 ± 0.33
31 | TTAAAAATATATGAATGTACATATATTTATATATAT [XGTACX_site77] | 8.04 ± 0.68
32 | TACTTACCAAAATACACACACACACCCAATATATAA [CACACA_site1871] | 8.04 ± 0.39
33 | TTTTTTTTATTAGTGTGTACGCATTTATTTATACAT [XGTACX_site1599] | 8.45 ± 0.43
34 | TTTAAATTATGAAATTGTACATATAAAAATATTTTA [XGTACX_site4796] | 7.86 ± 0.15
35 | TATATATTATTTAAAACACACAAAAAAAAAAATTAT [CACACA_site89] | 7.84 ± 0.62
36 | TATATTGAATGCAAAAGTACATTTGTGTAAATTTAT [XGTACX_site7611] | 8 ± 0.48
37 | TTTTTGTATTCTACCTTAACAATCTTAAAGATTTTT [CACACA_negctrl_site1157] | 7.86 ± 0.76
38 | TTTTTTTTTTTAAAATGTACACGTAATTACATATAT [XGTACX_site752] | 7.99 ± 0.67
39 | TGATGGTTACGTTTATGTACACATTACAGTTAGTAT [XGTACX_site998] | 7.79 ± 0.52
40 | AAAATATATTAAGGCACACACATACATATATATATA [CACACA_site3723] | 10.1 ± 0.4
41 | GAGTTAATATTTAAAAGTACAAGATGAATGTAAAAA [XGTACX_site5810] | 8.01 ± 0.57
42 | ACTACATTATTGCATTGTACTTTTTTTTTTTTTTTA [XGTACX_site4605] | 8.22 ± 0.56
43 | TAAAATATATATATGTGTACATAACATATAATTTTT [XGTACX_site1725] | 7.61 ± 0.11
44 | TTATTTAGTATATTATGTACATACAATGCCTGGGAA [XGTACX_site4578] | 8.1 ± 0.51
45 | TATTGTTGTTCATGTACACACTATAATAAAAGCAAT [CACACA_site6148] | 8.2 ± 0.42
46 | AGTATAAAAATATATTTACACACTATATATATCGAA [CACACA_site8494] | 7.78 ± 0.46

Row | Sequence | gcPBM binding intensity (ln)
47 | ATATGTTACAGACACACACACACATAAAAAAACAAA [CACACA_site3248] | 8.01 ± 0.44
48 | TTTTCATATTATAGTGCACACAAAAATATATATATG [CACACA_site8929] | 11.5 ± 0.47
49 | ATATATATATATATATGTACATATTGTATTAATTAT [XGTACX_site1919] | 9.31 ± 0.11
50 | CTCTGTTGTCTTAGTTGTACAATAGAAAAAAATAAT [XGTACX_site7043] | 8.38 ± 0.18
51 | TCTTTTAAACAGTACACACACACATCTATATTTATA [CACACA_site6559] | 8.2 ± 0.32
52 | TTTTTTACTTTTGAGACATTTCATATTTTTATTCAC [GTGCAC_negctrl_site730] | 7.73 ± 0.71
53 | TACAGGAATATTTTTACACACTAAAAATTATAAAAT [CACACA_site1649] | 7.67 ± 0.68
54 | TGATTGAGTAAAATGGGTACATATACACTATTACAT [XGTACX_site5232] | 7.82 ± 0.57
55 | AAAGGTTCACATTATATAGTTATGTAATATATATGT [CACACA_negctrl_site542] | 7.63 ± 0.67
56 | ATATTGTATTTATGTACACACATTTTTGGAATATGA [CACACA_site4861] | 8.06 ± 0.28
57 | TTTTTTCTCTGTGGCTGTACTTTGAAGATATTTTAT [XGTACX_site8243] | 8.11 ± 0.58
58 | TGTTTATTTTTAAAAAGTACATATATAAAAAATATC [XGTACX_site4902] | 7.89 ± 0.28
59 | ATAATTTGGAAACACACACACACACCCACATATATA [CACACA_site2286] | 8.34 ± 0.2
60 | TTAAATGAAAAATGGGGTACATATATACAAATATAT [XGTACX_site5931] | 8.1 ± 0.38
61 | AAAAAAAAATACTACTGTACTTTTTTTGGACATCTA [XGTACX_site1096] | 7.73 ± 0.057
62 | TGATTATACGCACGCGCACACACAACCAAAAAAAAA [CACACA_site3537] | 9.36 ± 0.18
63 | AAAAAAGGAAAAGATACACACCGTAAATTAAAATTT [CACACA_site5908] | 7.54 ± 0.62
64 | GAAGGAATATACAATTGTACTTGGCAAAAAAAAAAA [XGTACX_site1884] | 8.24 ± 0.86
65 | ATATATTTATATATTACACACAATATTGTACAGATA [CACACA_site8215] | 7.97 ± 0.4
66 | AAATACTTGTCATATTGTACATGTTTGTGATATATA [XGTACX_site3185] | 7.64 ± 0.35
67 | GTTAAGAATATATAATGTACTTATTTTAATATAGTA [XGTACX_site6088] | 7.58 ± 0.3
68 | AATAATCTATATTGTACACACAAAATGGGAAAAAAA [CACACA_site6969] | 8.11 ± 0.73
69 | AATTAGATTTACTGAAGTACTTAATTTATTTTATTA [XGTACX_site3407] | 7.42 ± 0.68

Row | Sequence | gcPBM binding intensity (ln)
70 | AGGTACTTTTTTAAAACACACATATAACATATACAC [CACACA_site6629] | 8.29 ± 0.34
71 | ACCCCCAATACGGAAACACACAAGTTATTTTATCAT [CACACA_site8874] | 8.87 ± 0.67
72 | ATATAAAATAATAAGGGTACAGGTCTCTGCGATGTT [XGTACX_site786] | 7.75 ± 0.73
73 | TAAAATATTGTTATTACATGCAACCTTATGAAAAAT [TGCATGCA_site706] | 7.78 ± 0.55
74 | ACTCGCATATTTAAATGTACTTAATTAGAAGAAAAA [XGTACX_site3304] | 8.03 ± 0.33
75 | AGAATTTTAGATTTAGCACACATTTTTTTTTTTTTT [CACACA_site4081] | 8.34 ± 0.45
76 | AACAAGAAATAATCACGTACACATTATAATAACTAA [XGTACX_site8184] | 7.92 ± 0.42
77 | CTTTAATATTTTATTTCACACACATAAATGCCCCAA [CACACA_site8569] | 8.9 ± 0.12
78 | AAAATTAAAATAGTAATACACACTTCATAGGAAATG [CACACA_site1762] | 7.47 ± 0.71
79 | AAAAAAAAAAAAAAAAAAAAAAAAAAAAGTTAAAAA [TGCATGCA_negctrl_site74] | 9.95 ± 0.042
80 | AAAAAAAAAGATCACACACACATAAATATAAACAAA [CACACA_site5285] | 7.73 ± 0.55
81 | TGATATTATTATAAGGTGCTTAAAAATAAAGATAAT [GTGCAC_site9539] | 10.1 ± 0.26
82 | TTTAAAAATTTGATCAAACACACGTTGCATAAATTA [CACACA_site3945] | 8.12 ± 0.52
83 | ATAATATAAACATACACACACACATATATATATATA [CACACA_site5591] | 9.21 ± 0.38
84 | ATAAATTGTAAAATGTGTACGCAGATATTGCGTATT [XGTACX_site332] | 8.08 ± 0.44
85 | TCTATATAATACCAATGTACATAGTTTTAAGCATAA [XGTACX_site1889] | 7.68 ± 0.47
86 | AGGATATGCAGACACACACACATATAGATTTATATA [CACACA_site7100] | 7.74 ± 0.55
87 | AAAACAAAAATATAAACACACATACATTGGTTTTCT [CACACA_site5405] | 7.84 ± 0.9
88 | TTTTGTCTTCAAATCAAATGTATATAAAAAAAATAC [CACACA_negctrl_site1717] | 7.74 ± 0.45
89 | AACTTGTGTGGATATTGTACTAACAATATGTATGAT [XGTACX_site6302] | 8.23 ± 0.42
